PubChem BioAssay AID504937 (National Center for Advancing Translational Sciences (NCATS), 2011)
Among all 340,000 compounds or so, about 20 (0.006%) were called active. The inconclusive results got no clear call from the source; some entries with a clear call stand among them for comparison. Calls follow the shape of the dose curve; as a rule, active = well fitted inhibition curve with a large enough effect; inconclusive = small, poorly fitted or top-dose-only effect; inactive = no such curve, though single readings can be large or run the other way. Potencies of inconclusive entries are doubtful fits and often do not repeat.

Each compound was assayed against Sphingomyelin phosphodiesterase (Homo sapiens) (UniProt P17405) (assay: Inhibitors of Secretory Acid Sphingomyelinase (S-ASM): qHTS). Conditions: placental ASM, HMU-PC fluorogenic substrate (series up to 57.5 µM), 60 min; activity change, negative = inhibition: at the top concentration.
Text: Atherosclerosis is the underlying process for cardiovascular disease and thus is a major contributor to disease burden in the population. […] Thus, selective small molecule inhibitors of S-ASM should block LDL modification and reduce aortic LDL retention and may serve as new agents for the treatment of atherosclerosis. In a collaboration between National Heart, Lung, and Blood Institute and the NCGC a high-throughput amenable screen was developed to identify potent and selective small molecule inhibitors of S-ASM. This enzymatic, fluorescent screen uses an ASM enzyme preparation derived from human placenta and was tested against the NIH Molecular Libraries Small Molecule Repository (MLSMR). NIH Chemical Genomics Center [NCGC] NIH Molecular Libraries Probe Centers Network [MLPCN] MLPCN Grant: MH093173-01 Assay Submitter (PI): Alan Remaley, National Heart, Lung, and Blood Institute and Wei Zhen, NIH Chemical Genomics Center
Two microliters of ASM enzyme (1:150 dilution from stock) are dispensed in 1536-well plate. 23 nL of compound and control are pinned into assay plate using the Kalypsys pintool. The plates are then incubated for 10 minutes at ambient room temperature. Then, 2 uL of the flurogenic substrate, HMU-PC0, (9 uM final) are added to the plate. An incubation for 60 minutes takes place at 37 masculineC. After that, 4 uL of stop solution is added to raise the pH to 10 to end the kinetic reaction. Plate is read on ViewLux, with detection set at Ex = 386 (10) nm and Em = 447 (10) nm.
Potency is read from the fitted curve at half-maximal effect; tags tell the direction and shape of the fitted curve.

Sequence of UniProt P17405 (P17405 whole entry, looked up): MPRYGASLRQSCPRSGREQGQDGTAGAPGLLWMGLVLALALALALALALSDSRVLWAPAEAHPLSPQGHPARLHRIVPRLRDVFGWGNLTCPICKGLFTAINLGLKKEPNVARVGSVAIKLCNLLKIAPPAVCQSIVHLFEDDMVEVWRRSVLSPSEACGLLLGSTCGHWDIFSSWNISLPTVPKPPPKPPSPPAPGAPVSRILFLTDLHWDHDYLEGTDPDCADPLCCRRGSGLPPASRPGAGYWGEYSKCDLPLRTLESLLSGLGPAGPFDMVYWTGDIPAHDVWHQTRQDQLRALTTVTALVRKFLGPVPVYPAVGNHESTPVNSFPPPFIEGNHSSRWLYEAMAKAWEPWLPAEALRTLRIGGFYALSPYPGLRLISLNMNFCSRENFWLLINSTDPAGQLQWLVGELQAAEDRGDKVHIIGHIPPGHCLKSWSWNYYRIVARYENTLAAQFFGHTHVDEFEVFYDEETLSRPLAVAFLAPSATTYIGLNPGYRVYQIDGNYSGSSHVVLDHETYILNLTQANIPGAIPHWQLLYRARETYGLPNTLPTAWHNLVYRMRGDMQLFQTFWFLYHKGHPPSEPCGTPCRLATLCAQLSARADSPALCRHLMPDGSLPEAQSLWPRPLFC

Structure (SMILES)	Potency	activity change, negative = inhibition
O=C(Nc1nc(-c2ccc(S(=O)(=O)N3CCCC3)cc2)cs1)c1cccs1	inconclusive: 282 µM [inhibitor, partial curve, poor fit]	–
O=C(NCCc1ccc(Cl)cc1)C1CCCN(S(=O)(=O)N2CCCCCC2)C1 (configuration not stated)	–	inactive: -1.39%
COCCCNc1nc(SCc2ccccc2)nc2sc3c(c12)CCC3	–	inactive: -6.6%
CCCc1nc2ccc(NC(=O)c3ccco3)cc2c(=O)n1Cc1ccc(Cl)cc1	inconclusive: 89.1 µM [inhibitor, partial curve]	–
O=c1c2ccccc2cnn1-c1ccc(Cl)cc1	–	inactive: -0.74%
CCOc1ccc(Oc2cc(NC(=O)c3ccco3)cc([N+](=O)[O-])c2)cc1	inconclusive: 25.1 µM [inhibitor, partial curve, poor fit]	–
O=S(=O)(Cc1ccccc1)NC1c2ccccc2Oc2ccccc21	inconclusive: 316 µM [inhibitor, partial curve, poor fit]	–
Cc1ccc(CN2C(=O)CCC2C(=O)NCCc2ccccc2)cc1 (configuration not stated)	–	inactive: 1.83%
Fc1ccc(CNC(=S)NCc2ccccc2)cc1	–	inactive: -1.01%
CCN(CC)N=Nc1[nH]nc2nc(C)cc(C)c12	–	inactive: -0.343%
COc1ccc(/C=N/NC(=O)CSc2ccccn2)cc1OC	–	inactive: -3.09%
COc1ccc(/C=N/NC(=S)NCCc2ccccc2)cc1	inconclusive: 70.8 µM [inhibitor, single point]	–
CCOC(=O)c1c(NC(=O)CSc2nc3ccccc3s2)sc(C(C)=O)c1C	inconclusive: 447 µM [inhibitor, partial curve, poor fit]	–
O=C(CN1C(=O)/C(=C/c2cccc(Br)c2)SC1=S)Nc1cccnc1	inconclusive: 447 µM [inhibitor, partial curve, poor fit]	–
CCn1c(O)c(N=Nc2ccc3ccccc3n2)c2ccccc21	inconclusive: 100 µM [inhibitor, partial curve, poor fit]	–
CCOc1cc(CNCCO)cc(Br)c1OCc1ccc(Cl)cc1Cl	inconclusive: 100 µM [inhibitor, partial curve, poor fit]	–
CCCCCCCCn1cnc2c(N)c(C)c(C)cc21	inconclusive: 89.1 µM [inhibitor, single point]	–
Cc1ccc(O)c(-c2cc(C(=O)NCc3ccncc3)[nH]n2)c1	–	inactive: -1.85%
CCN(CC)S(=O)(=O)c1ccc(/C=C/C(=O)Nc2cccc(F)c2)cc1	inconclusive: 100 µM [inhibitor, partial curve, poor fit]	–
O=C1c2ccccc2-c2onc3ccc(NCc4ccco4)c1c23	inconclusive: 89.1 µM [inhibitor, single point]	–
CCN1C(=O)/C(=C\c2ccc3c(c2)OCO3)C(C(=O)OC)=C1C	inconclusive: 316 µM [inhibitor, partial curve, poor fit]	–

Structure (SMILES)	Potency	activity change, negative = inhibition
CCOc1ccc(/C=C2\SC(=S)N(NS(=O)(=O)c3ccc(C)cc3)C2=O)cc1OC	inconclusive: 50.1 µM [inhibitor, partial curve, poor fit]	–
O[C@@H]1COC(Nc2ccc(N=Nc3ccccc3)cc2)C[C@@H]1O (some centres not stated)	inconclusive: 79.4 µM [inhibitor, single point]	–
Cc1cc(O)c(-c2cc(C(=O)Nc3ccc(S(=O)(=O)N4CCOCC4)cc3)[nH]n2)cc1C	inconclusive: 70.8 µM [inhibitor, single point]	–
O=C(Cn1c(=O)n(Cc2ccco2)c(=O)c2ccccc21)Nc1cccc(Cl)c1	inconclusive: 251 µM [inhibitor, partial curve, poor fit]	–
CCCN1C(=O)/C(=C/c2ccc(C)o2)SC1=Nc1ccc(OCC)cc1	inconclusive: 79.4 µM [inhibitor, partial curve]	–
C/C(=N/NS(=O)(=O)c1ccc(C)cc1)c1cccc(NC(=O)c2cccc(Cl)c2)c1	inconclusive: 112 µM [inhibitor, partial curve, poor fit]	–
COc1ccc(OC)c(/C=C2\SC(=S)N(NS(=O)(=O)c3ccc(C)cc3)C2=O)c1	inconclusive: 100 µM [inhibitor, single point]	–
Cn1nc(-c2ccc(Cl)cc2)c2cc(C(=O)N3CCN(c4ccccn4)CC3)sc21	inconclusive: 200 µM [inhibitor, partial curve, poor fit]	–
O=c1nc(SCc2c(F)cccc2Cl)nc(-c2ccccc2)[nH]1	–	inactive: -0.719%
Cc1ccc2c(c1)C1CN(C)CCC1N2S(=O)(=O)c1ccc(C#N)cc1 (configuration not stated)	–	inactive: -2.23%
Cc1ccc(SCC(=O)OCC(=O)NC2(C#N)CCCCC2)cc1	–	inactive: 1.14%
Cc1ccc(N(CC(=O)Nc2cc(C)cc(C)c2)S(=O)(=O)c2c(C)noc2C)cc1	inconclusive: 141 µM [inhibitor, partial curve, poor fit]	–
NC(=O)c1ccsc1NC(=O)COC(=O)Cc1cccc2ccccc12	inconclusive: 316 µM [inhibitor, partial curve, poor fit]	–
COc1ccc(/C=C/C(=O)C2CC2)cc1Cn1nc(C)c([N+](=O)[O-])c1C	inconclusive: 794 µM [inhibitor, partial curve, poor fit]	–
CCCCCSc1nnc2c(n1)OC(c1cccn1C)N(C(C)=O)c1ccccc1-2 (configuration not stated)	inconclusive: 224 µM [inhibitor, partial curve, poor fit]	–
COc1cccc(OC)c1C(=O)OCC(=O)Nc1ccc(OC(F)(F)F)cc1	inconclusive: 100 µM [inhibitor, partial curve, poor fit]	–
CCC1C/C(=C/c2cccs2)C(=O)/C(=C/c2cccs2)C1 (configuration not stated)	inconclusive: 316 µM [inhibitor, partial curve, poor fit]	–
C[C@H](CO)N1C[C@H](C)[C@@H](CN(C)C(=O)Nc2ccc3c(c2)OCO3)Oc2ccc(NC(=O)Nc3ccc(C(F)(F)F)cc3)cc2C1=O	inconclusive: 112 µM [inhibitor, partial curve, poor fit]	–
O=C(O)c1ccccc1-c1c2cc(I)c(=O)c(I)c-2oc2c(I)c(O)c(I)cc12	inconclusive: 63.1 µM [inhibitor, single point]	–
CC1Oc2cc3oc4c(O)c5c(cc4c(=O)c3c(O)c2C1(C)C)C=CC(C)(C)O5 (configuration not stated)	inconclusive: 398 µM [inhibitor, partial curve, poor fit]	–
O=C(COC(=O)COc1ccc(Cl)cc1)Nc1ccc(F)c([N+](=O)[O-])c1	inconclusive: 112 µM [inhibitor, partial curve, poor fit]	–

Structure (SMILES)	Potency	activity change, negative = inhibition
Cc1ccc(-n2nnnc2SCC(=O)c2c(N)n(C3CC3)c(=O)[nH]c2=O)c(C)c1	–	inactive: -4.25%
Cc1cccc(Nc2nc(N3CCCCC3)nc(N3CCCCC3)n2)c1	inconclusive: 2820 µM [inhibitor, partial curve, poor fit]	–
CCCCC1CCC(C(=O)Nc2ccc(S(=O)(=O)Nc3nccs3)cc2)CC1 (configuration not stated)	inconclusive: 100 µM [inhibitor, partial curve, poor fit]	–
OCC1(Cc2ccc(F)cc2)CCCN(CCCC(F)(F)F)C1 (configuration not stated)	–	inactive: 2.25%
CC(C)(C)NC(=O)NC(=O)COC(=O)c1ccc(OC(F)(F)F)cc1	inconclusive: 200 µM [inhibitor, partial curve, poor fit]	–
COc1ccc(NC(=O)Cc2ccc(Cl)c(Cl)c2)cn1	–	inactive: -1.25%
Cc1cc(OCC(=O)Nc2sc3c(c2C#N)CC(C)(C)NC3(C)C)c(C(C)C)cc1Cl	inconclusive: 35.5 µM [inhibitor, partial curve]	–
C/C(N)=C(/C#N)C(=O)CSc1nc2scc(-c3ccc(F)cc3)c2c(=O)n1C	inconclusive: 251 µM [inhibitor, partial curve, poor fit]	–
O=c1c2ccccc2nc(-c2ccc(Br)cc2)n1Cc1ccccc1	inconclusive: 100 µM [inhibitor, partial curve, poor fit]	–
COc1cc(/C=C(/C(=O)c2cccs2)c2nc3ccccc3[nH]2)cc(OC)c1O	inconclusive: 200 µM [inhibitor, partial curve, poor fit]	–
CC[C@H]1OC(=O)[C@H](C)[C@@H](O[C@H]2C[C@@](C)(OC)[C@@H](O)[C@H](C)O2)[C@H](C)[C@@H](O[C@@H]2O[C@H](C)C[C@H](N(C)C)[C@H]2O)[C@](C)(O)C[C@@H](C)C(=O)[C@H](C)[C@@H](O)[C@]1(C)O	inconclusive: 70.8 µM [inhibitor, partial curve, poor fit]	–
CS(=O)(=O)N1CCC(C(=O)N2CCc3ccccc3C2)CC1	–	inactive: 1.39%
COc1cccc(CN2CCC(n3nccc3NC(=O)CCCc3ccccc3)CC2)c1	–	inactive: 3.46%
COC(=O)c1c(NC(=O)COc2ccc(Cl)cc2)sc2c1CC(C)(C)NC2(C)C	inconclusive: 56.2 µM [inhibitor, partial curve]	–
Cc1c(Br)cnn1C(C)C(=O)N1CCN(c2ccccc2F)CC1 (configuration not stated)	–	inactive: 5.07%
CCn1c(SCc2ccc(C(=O)Nc3nccs3)cc2)nnc1-c1ccc(NC(C)=O)cc1	inconclusive: 22.4 µM [inhibitor, partial curve, poor fit]	–
COc1cc(C2CC(=O)Oc3cc(C)c(Br)c(C)c32)cc(OC)c1OC (configuration not stated)	inconclusive: 112 µM [inhibitor, partial curve, poor fit]	–
O=C(c1ccccc1)c1ccc(OCCOCCN2CCN(Cc3ccccc3)CC2)cc1	–	inactive: 16.1%
CCCN1/C(=C2/SC(=S)N(CC)C2=O)C=Cc2ccccc21	inconclusive: 100 µM [inhibitor, partial curve, poor fit]	–
Oc1c(Cl)cc(Cl)cc1/C=C/c1ccc2cccc(O)c2n1	inconclusive: 316 µM [inhibitor, partial curve, poor fit]	–
